Results: ChEMBL document CHEMBL4689842, “EUbOPEN Chemogenomics Library wave 1” (2021)
A number of entries come with more than one value. The list is limited to them. There may be further records. Values given together are repeats (runs, samples, wells, individuals or studies).

How the values were obtained:
Assay type in all cases: toxicity, cell-based
Fibroblast = assay: Multiplex assay against human fibroblast; conditions: 10 µM, compound concentration 10 uM
Outline: (§1)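 With compound added, live cells were imaged on a CQ1 microscope at 37°C and 5% CO2; staining with Hoechst33342, BioTracker Green Microtubule Cytoskeleton Dye, MitoTracker Red and Annexin V Alexa Fluor 680 had been done at seeding. The CellPathfinder machine-learning gating scheme split cells into Hoechst high-intensity objects or normal cells, normal cells into healthy, pyknosed or fragmented nuclei, and pyknosed cells into mitotic or apoptotic. The tubulin, mitochondrial-mass and membrane-permeability phenotypes are per cents of healthy-nucleus cells.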

HEK-293T = assay: Multiplex assay against HEK293T; conditions: human, 10 µM, compound concentration 10 uM; outline: as §1;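 as to Population Tubulin-Different-Phenotype (%): share of the cells with healthy nuclei that show this phenotype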
U2OS = assay: Multiplex assay against U2OS; conditions: human, 10 µM, compound concentration 10 uM; outline: as §1

Structure (SMILES): Cn1c(-c2csc(C3CCN(CC4=NC5N=CC=CC5N4)CC3)n2)nc2ccccc21 (stereo not given) [BAY-070]
- Population Tubulin-Different-Phenotype (%) (Fibroblast; 12 h, replicate 1): 15% and 2%
- Population Apoptotic (%) (Fibroblast; 12 h, replicate 2): 16% and 80%
- Population Mitochondria Different-Phenotype (%) (Fibroblast; 12 h, replicate 2): 27% and 0%
- Population Mitotic Cells (%) (Fibroblast; 12 h, replicate 2): 83% and 20%
- Population Tubulin-Different-Phenotype (%) (Fibroblast; 12 h, replicate 2): 9% and 41%
- Population Mitochondria Different-Phenotype (%) (Fibroblast; 24 h, replicate 1): 8% and 1%
- Population Tubulin-Different-Phenotype (%) (Fibroblast; 24 h, replicate 1): 18% and 2%
- Population Apoptotic (%) (Fibroblast; 24 h, replicate 2): 0% and 57%
- Population Mitochondria Different-Phenotype (%) (Fibroblast; 24 h, replicate 2): 20% and 5%
- Population Pyknosed Nuclei (%) (HEK-293T; 12 h, replicate 2): 13% and 4%
- Population Tubulin-Different-Phenotype (%) (HEK-293T; 24 h, replicate 1): 19% and 6%
- Population Pyknosed Nuclei (%) (HEK-293T; 24 h, replicate 2): 2% and 7%
- Population Tubulin-Different-Phenotype (%) (HEK-293T; 24 h, replicate 2): 8% and 34%
- Population Apoptotic (%) (U2OS; 12 h, replicate 1): 8% and 29%
- Population Apoptotic (%) (U2OS; 12 h, replicate 2): 0% and 33%
- Population Membrane Permeable-Phenotype (%) (U2OS; 24 h, replicate 2): 16% and 5%

Structure (SMILES): CNCc1ccccc1-c1csc([C@H](C)Nc2nc(C)nc3cc(OC)c(OC)cc23)c1 [BAY-294]
- Population Healthy Nuclei (%) (Fibroblast; 12 h, replicate 1): 48%, 16%, 9%
- Population Hoechst High Intensity Objects (%) (Fibroblast; 12 h, replicate 1): 29%, 6%, 15%
- Population Mitochondria Different-Phenotype (%) (Fibroblast; 12 h, replicate 1): 4% and 32%
- Population Mitotic Cells (%) (Fibroblast; 12 h, replicate 1): 56%, 43%, 17%
- Population Healthy Nuclei (%) (Fibroblast; 12 h, replicate 2): 14%, 43%, 23%
- Population Membrane Permeable-Phenotype (%) (Fibroblast; 12 h, replicate 2): 44%, 15%, 86%
- Population Mitochondria Different-Phenotype (%) (Fibroblast; 12 h, replicate 2): 33%, 25%, 93%
- Population Healthy Nuclei (%) (Fibroblast; 24 h, replicate 1): 49%, 7%, 21%
- Population Membrane Permeable-Phenotype (%) (Fibroblast; 24 h, replicate 1): 9%, 6%, 50%
- Population Mitochondria Different-Phenotype (%) (Fibroblast; 24 h, replicate 1): 5%, 25%, 50%
- Population Mitotic Cells (%) (Fibroblast; 24 h, replicate 1): 45% and 10%
- Population Healthy Nuclei (%) (Fibroblast; 24 h, replicate 2): 36%, 6%, 20%
- Population Membrane Permeable-Phenotype (%) (Fibroblast; 24 h, replicate 2): 8%, 33%, 85%
- Population Mitochondria Different-Phenotype (%) (Fibroblast; 24 h, replicate 2): 4%, 100%, 92%
- Population Mitotic Cells (%) (Fibroblast; 24 h, replicate 2): 68%, 6%, 21%
- Population Tubulin-Different-Phenotype (%) (Fibroblast; 24 h, replicate 2): 44%, 0%, 85%
- Population Healthy Nuclei (%) (HEK-293T; 12 h, replicate 1): 0%, 45%, 19%
- Population Membrane Permeable-Phenotype (%) (HEK-293T; 12 h, replicate 1): 0%, 28%, 13%
- Population Mitochondria Different-Phenotype (%) (HEK-293T; 12 h, replicate 1): 100%, 30%, 67%
- Population Mitotic Cells (%) (HEK-293T; 12 h, replicate 1): 16%, 70%, 57%
- Population Apoptotic (%) (HEK-293T; 12 h, replicate 2): 82% and 11%
- Population Fragmented Nuclei (%) (HEK-293T; 12 h, replicate 2): 1%, 5%, 4%
- Population Healthy Nuclei (%) (HEK-293T; 12 h, replicate 2): 40%, 9%, 73%
- Population Hoechst High Intensity Objects (%) (HEK-293T; 12 h, replicate 2): 11%, 4%, 3%
- Population Membrane Permeable-Phenotype (%) (HEK-293T; 12 h, replicate 2): 7%, 5%, 30%
- Population Mitotic Cells (%) (HEK-293T; 12 h, replicate 2): 17% and 88%
- Population Pyknosed Nuclei (%) (HEK-293T; 12 h, replicate 2): 57%, 84%, 21%
- Population Healthy Nuclei (%) (HEK-293T; 24 h, replicate 1): 0%, 14%, 60%
- Population Membrane Permeable-Phenotype (%) (HEK-293T; 24 h, replicate 1): 0%, 20%, 27%
- Population Mitochondria Different-Phenotype (%) (HEK-293T; 24 h, replicate 1): 100%, 54%, 29%
- Population Tubulin-Different-Phenotype (%) (HEK-293T; 24 h, replicate 1): 0%, 57%, 96%
- Population Apoptotic (%) (HEK-293T; 24 h, replicate 2): 53%, 95%, 16%
- Population Healthy Nuclei (%) (HEK-293T; 24 h, replicate 2): 23%, 7%, 82%
- Population Hoechst High Intensity Objects (%) (HEK-293T; 24 h, replicate 2): 12%, 7%, 3%
- Population Mitochondria Different-Phenotype (%) (HEK-293T; 24 h, replicate 2): 85%, 69%, 19%
- Population Mitotic Cells (%) (HEK-293T; 24 h, replicate 2): 46%, 4%, 83%
- Population Pyknosed Nuclei (%) (HEK-293T; 24 h, replicate 2): 67%, 86%, 5%
- Population Fragmented Nuclei (%) (U2OS; 12 h, replicate 1): 27% and 8%
- Population Healthy Nuclei (%) (U2OS; 12 h, replicate 1): 10%, 31%, 73%
- Population Pyknosed Nuclei (%) (U2OS; 12 h, replicate 1): 62%, 52%, 17%
- Population Fragmented Nuclei (%) (U2OS; 12 h, replicate 2): 15%, 46%, 18%
- Population Hoechst High Intensity Objects (%) (U2OS; 12 h, replicate 2): 11% and 55%
- Population Pyknosed Nuclei (%) (U2OS; 12 h, replicate 2): 46%, 30%, 14%
- Population Fragmented Nuclei (%) (U2OS; 24 h, replicate 1): 38%, 20%, 11%
- Population Healthy Nuclei (%) (U2OS; 24 h, replicate 1): 3%, 9%, 60%
- Population Hoechst High Intensity Objects (%) (U2OS; 24 h, replicate 1): 5%, 13%, 3%
- Population Healthy Nuclei (%) (U2OS; 24 h, replicate 2): 14%, 47%, 20%
- Population Hoechst High Intensity Objects (%) (U2OS; 24 h, replicate 2): 17%, 7%, 54%

Structure (SMILES): CN(C)c1ncnc(-c2ccc3nc(Nc4cc(CN5CCN(C(=O)CC(F)(F)F)CC5)ccn4)[nH]c3c2)c1Cl [BAY-440]
- Population Tubulin-Different-Phenotype (%) (Fibroblast; 12 h, replicate 1): 58% and 9%
- Population Mitotic Cells (%) (Fibroblast; 12 h, replicate 2): 16% and 50%
- Population Tubulin-Different-Phenotype (%) (Fibroblast; 24 h, replicate 1): 66% and 7%
- Population Mitochondria Different-Phenotype (%) (Fibroblast; 24 h, replicate 2): 11% and 35%
- Population Tubulin-Different-Phenotype (%) (Fibroblast; 24 h, replicate 2): 16% and 85%
- Population Healthy Nuclei (%) (HEK-293T; 12 h, replicate 1): 20% and 62%
- Population Membrane Permeable-Phenotype (%) (HEK-293T; 12 h, replicate 1): 26% and 8%
- Population Tubulin-Different-Phenotype (%) (HEK-293T; 12 h, replicate 1): 58% and 12%
- Population Mitochondria Different-Phenotype (%) (HEK-293T; 12 h, replicate 2): 48% and 13%
- Population Pyknosed Nuclei (%) (HEK-293T; 12 h, replicate 2): 17% and 5%
- Population Tubulin-Different-Phenotype (%) (HEK-293T; 12 h, replicate 2): 97% and 25%
- Population Apoptotic (%) (HEK-293T; 24 h, replicate 1): 33% and 10%
- Population Healthy Nuclei (%) (HEK-293T; 24 h, replicate 1): 21% and 77%
- Population Hoechst High Intensity Objects (%) (HEK-293T; 24 h, replicate 1): 21% and 5%
- Population Mitochondria Different-Phenotype (%) (HEK-293T; 24 h, replicate 1): 43% and 5%
- Population Pyknosed Nuclei (%) (HEK-293T; 24 h, replicate 1): 48% and 12%
- Population Fragmented Nuclei (%) (HEK-293T; 24 h, replicate 2): 2% and 18%
- Population Mitochondria Different-Phenotype (%) (HEK-293T; 24 h, replicate 2): 62% and 3%
- Population Pyknosed Nuclei (%) (HEK-293T; 24 h, replicate 2): 20% and 2%
- Population Tubulin-Different-Phenotype (%) (HEK-293T; 24 h, replicate 2): 98% and 28%
- Population Membrane Permeable-Phenotype (%) (U2OS; 12 h, replicate 1): 49% and 14%
- Population Tubulin-Different-Phenotype (%) (U2OS; 12 h, replicate 1): 92% and 11%
- Population Apoptotic (%) (U2OS; 12 h, replicate 2): 33% and 0%
- Population Membrane Permeable-Phenotype (%) (U2OS; 12 h, replicate 2): 46% and 15%
- Population Tubulin-Different-Phenotype (%) (U2OS; 12 h, replicate 2): 98% and 23%
- Population Membrane Permeable-Phenotype (%) (U2OS; 24 h, replicate 1): 37% and 7%
- Population Mitochondria Different-Phenotype (%) (U2OS; 24 h, replicate 1): 42% and 11%
- Population Tubulin-Different-Phenotype (%) (U2OS; 24 h, replicate 1): 87% and 15%
- Population Apoptotic (%) (U2OS; 24 h, replicate 2): 50% and 0%
- Population Membrane Permeable-Phenotype (%) (U2OS; 24 h, replicate 2): 38% and 11%
- Population Tubulin-Different-Phenotype (%) (U2OS; 24 h, replicate 2): 93% and 29%
